Assay results reported in PubChem BioAssay (Tox21).
Several values for one entry are separate records, joined by “and”; a condition that tells them apart may be missing. Equal entries are not always repeated. Inconclusive means that the source gave no clear call. Such entries were picked first, then a sample of the others. For some assays here: A potency beside an inconclusive call is a rough fit, not a confirmed value. More than one record can exist for a structure, and the calls need not agree. Activity calls are given as the source filed them. Unless noted, calls come from the whole dose curve; as a rule, active = well fitted curve in the direction sought with a large enough effect in the repeat runs; inconclusive = weak or mixed curves; inactive = no such curve, though single readings can be large; an effect the other way counts as inactive or inconclusive.

Assays:
[1] = qHTS assay to identify small molecule antagonists of the estrogen receptor beta (ER-beta) signaling pathway - cell viability counter screen (AID 1259382); note: potency is the fitted concentration of half-maximal effect; nearly all actives have a fitted effect of over 55% in size
Summary of the method: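 Readout: luminescence, CellTiter-Glo, same wells as bla assay. System: ER-beta-UAS-bla GripTite HEK293T, 2% charcoal-stripped FBS. Exposure: compounds plus 1nM 17-beta-estradiol, 16 hr, 37C.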

[2] = qHTS assay to identify small molecule agonists or antagonists of the thyroid stimulating hormone receptor (TSHR) signaling pathway - wild type cell line counter screen (AID 1259384; calls by dose curve; note: potency is the fitted concentration of half-maximal effect; for cAMP activity change: % is set by controls: 0 for no effect and ±100 for the full control effect); conditions: HEK293 wild type, cAMP HTRF counter-screen; cAMP activity change: at 92.4 µM (top of the series), stronger effect = higher value unless noted
Summary of the method: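 Counter screen in untransfected Hek293: compounds (15-point titration, triplicate) plus phosphodiesterase inhibitor Ro20-1724 added after 18 h plating; 30 min RT. Intracellular cAMP via competitive d2/cryptate immunoassay, 1 h incubation.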

[3] = target: Progesterone receptor (Homo sapiens) (UniProt P06401); assay: qHTS assay to identify small molecule antagonists of the progesterone receptor (PR) signaling pathway (AID 1346795; active = well fitted inhibition curve with a large enough effect in the signal ratio in the repeat runs, not every such curve was filed as active; inconclusive = weak or mixed curves; the % refers to the signal ratio; note: potency is the fitted concentration of half-maximal effect); conditions: PR-UAS-bla HEK293T, beta-lactamase FRET ratio, 16 h; activity change, negative = inhibition: at 92.4 µM (top of the series) unless noted
Summary of the method: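 Beta-lactamase reporter, HEK293T PR-UAS-bla line; 2% charcoal-stripped FBS; 6 hr pre-incubation, 37C/5% CO2. Compound + R5020 1 nM final, 16 hr. LiveBLAzer B/G FRET substrate, 2 hr RT; fluorescence intensity read.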

[4] = qHTS assay to identify small molecule agonists of the progesterone receptor (PR) signaling pathway - cell viability counter screen (AID 1346799; calls by dose curve; note: potency is the fitted concentration of half-maximal effect; nearly all actives have a fitted effect of over 45% in size)
Summary of the method: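 HEK293T PR-UAS-bla, 3,000 cells/well, 2% charcoal-stripped FBS; 6 h settle, compound 16 h at 37C/5% CO2; LiveBLAzer 2 h RT, then CellTiter-Glo 30 min RT, luminescence read.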

[5] = qHTS assay to identify small molecule antagonists of the TGF-beta/Smad signaling pathway - cell viability counter screen (AID 1346824); note: potency is the fitted concentration of half-maximal effect; nearly all actives have a fitted effect of over 50% in size
Summary of the method: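 Cytotoxicity counter-screen run in the same wells as the beta-lactamase Smad reporter read: CellTiter-Glo luminescence after 30 min at room temperature. HEK 293T SBE-bla cells had 5 hr compound exposure at 37 C with TGF-beta1 (0.25 ng/mL stock).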

[6] = qHTS assay to identify small molecule agonists of the TGF-beta/Smad signaling pathway (AID 1346859; active = well fitted activation curve with a large enough effect in the signal ratio in the repeat runs, not every such curve was filed as active; inconclusive = weak or mixed curves; the % refers to the signal ratio; note: potency is the fitted concentration of half-maximal effect; for activation: % is set by controls: 0 for no effect and ±100 for the full control effect); conditions: SBE-bla HEK293T, TGF-beta/Smad beta-lactamase reporter, 5 h; activation: at 76.8 µM (top of the series)
Summary of the method: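 Read-out: fluorescence at 460 and 530 nm (405 nm excitation) after a 2 hr room-temperature incubation with beta-lactamase FRET substrate. SBE-bla HEK 293T cells had been treated with test compounds for 5 hr at 37 C.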

[7] = target: Thyrotropin-releasing hormone receptor (Homo sapiens) (UniProt P34981); assay: qHTS assay to identify small molecule antagonists of the thyrotropin-releasing hormone receptor (TRHR) signaling pathway (AID 1346877; active = well fitted inhibition curve with a large enough effect in the repeat runs, not every such curve was filed as active; inconclusive = weak or mixed curves; note: potency is the fitted concentration of half-maximal effect)
Summary of the method: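 Overnight-plated (18 h, 37 °C) HEK293 cells expressing TRHR were dye-loaded 2 h, treated with compound, then stimulated with TRH at 1 nM final. Fluorescence intensity was captured every second for 3 min.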

[8] = Human pregnane X receptor (PXR) small molecule agonists, qHTS cell viability counter screen (AID 1346977); note: potency is the fitted concentration of half-maximal effect; nearly all actives have a fitted effect of over 50% in size
Summary of the method: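 Fluorescence read-out (CellTiter-Fluor) of viability in PXR-Luc HepG2 cells, multiplexed with the luciferase agonist read. Compounds in DMSO added after 5hr plating; 24hr total exposure at 37C, 5% CO2.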

[9] = qHTS assay to identify small molecule agonists of the estrogen receptor beta (ER-beta) signaling pathway - cell viability counter screen (AID 1259380); note: % is set by controls: 0 for no effect and ±100 for the full control effect; nearly all actives have a fitted effect of over 30% in size
Summary of the method: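 Measured: luminescence from CellTiter-Glo after 30 min at room temperature, added to wells already read for the LiveBLAzer FRET reporter (2 hr substrate); ER-beta-UAS-bla HEK293T cells had 16 hr compound treatment at 37C, 5% CO2.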

[10] = qHTS assay to identify small molecule antagonists of the progesterone receptor (PR) signaling pathway - cell viability counter screen (AID 1346798); note: nearly all actives have a fitted effect of over 50% in size; note: potency is the fitted concentration of half-maximal effect
Summary of the method: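 Luminescence readout (CellTiter-Glo, 30 min, RT) of viability in PR-UAS-bla HEK293T cells exposed to compound and R5020 agonist for 16 hr at 37C, 5% CO2; run in the same wells as the beta-lactamase reporter read.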

[11] = Caspase-3/7 induction in CHO-K1 cells by small molecules, qHTS cell viability counter screen (AID 1346979); note: potency is the fitted concentration of half-maximal effect; nearly all actives have a fitted effect of over 35% in size
Summary of the method: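 CHO-K1 wt, 1,500 cells/well; 5hr pre-incubation 37C/5% CO2; compound pin transfer (DMSO); 16hr exposure; CellTiter-Fluor added, 1hr, fluorescence read.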

[12] = target: Thyrotropin receptor (Homo sapiens) (UniProt P16473); assay: qHTS assay to identify small molecule antagonists of the thyroid stimulating hormone receptor (TSHR) signaling pathway (AID 1259385; calls by dose curve; note: potency is the fitted concentration of half-maximal effect; nearly all actives have a fitted effect of over 20% in size); conditions: TSHR-HEK293 cAMP HTRF, TSH-stimulated antagonist mode; activity change, negative = inhibition: at 92.4 µM (top of the series) unless noted
Summary of the method: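 Antagonist mode: compound-treated TSHR-expressing HEK293 cells were stimulated with 1.5 ng/mL TSH (final) in presence of Ro20-1724 for 30 min at RT. HTRF cAMP detection after 1 h; each compound tested at 15 concentrations, triplicate.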

[13] = target: Progesterone receptor (Homo sapiens) (UniProt P06401); assay: qHTS assay to identify small molecule agonists of the progesterone receptor (PR) signaling pathway (AID 1346784; calls by dose curve; note: nearly all actives have a fitted effect of over 30% in size; note: potency is the fitted concentration of half-maximal effect; for activation: % is set by controls: 0 for no effect and ±100 for the full control effect); conditions: PR-UAS-bla HEK293T, beta-lactamase FRET ratio, 16 h; activation: at 92.4 µM (top of the series) unless noted
Summary of the method: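 HEK 293T PR-UAS-bla reporter cells, 2% charcoal-stripped FBS; 6 hr settle at 37C/5% CO2, compound (DMSO) 16 hr, LiveBLAzer B/G FRET substrate 2 hr RT, fluorescence intensity read.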

[14] = Caspase-3/7 induction in HepG2 cells by small molecules, qHTS assay (AID 1346978); note: potency is the fitted concentration of half-maximal effect; nearly all actives have a fitted effect of over 15% in size
Summary of the method: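 Caspase-3/7 induction was measured by Caspase-Glo 3/7 luminescence (30 min, room temperature) after a 17 hr compound exposure of wild-type HepG2 cells seeded at 2,000 per well and pre-incubated 5 hr.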

[15] = Caspase-3/7 induction in CHO-K1 cells by small molecules, qHTS assay (AID 1346980); note: potency is the fitted concentration of half-maximal effect; nearly all actives have a fitted effect of over 15% in size
Summary of the method: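 Luminescent Caspase-Glo 3/7 read (30min, room temperature) quantified apoptosis induction. Cells were wild-type CHO-K1, treated with compound for 17hr at 37 C and 5% CO2.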

[16] = qHTS assay to identify small molecule agonists of the estrogen receptor alpha (ER-alpha) signaling pathway in the presence of an antagonist - cell viability counter screen (AID 1259386);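 note: potency is the fitted concentration of half-maximal effect; cells exposed to compounds for 22 h at 37 °C before the viability read; nearly all actives have a fitted effect of over 30% in size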
Summary of the method: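 The test measures whether compounds kill ER-alpha reporter cells (VM7Luc4E2) under antagonist co-treatment (ICI-182,780, 10.0nM). Fluorescence from CellTiter-Fluor is read after a 22hr exposure.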

[17] = qHTS assay to identify small molecule agonists of the TGF-beta/Smad signaling pathway - cell viability counter screen (AID 1346829); note: potency is the fitted concentration of half-maximal effect; nearly all actives have a fitted effect of over 45% in size
Summary of the method: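 CellTiter-Glo luminescence readout; SBE-bla HEK 293T cells, overnight plating, compound 5 hr at 37 C/5% CO2, then bla substrate 2 hr RT, then CellTiter-Glo 30 min RT.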

[18] = qHTS assay to identify small molecule antagonists of the TGF-beta/Smad signaling pathway (AID 1346924; active = well fitted inhibition curve with a large enough effect in the signal ratio in the repeat runs, not every such curve was filed as active; inconclusive = weak or mixed curves; the % refers to the signal ratio; note: potency is the fitted concentration of half-maximal effect); conditions: SBE-bla HEK293T, TGF-beta/Smad reporter, beta-lactamase ratio; activity, negative = inhibition: at 76.8 µM (top of the series) unless noted
Summary of the method: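 Read-out was FRET-substrate fluorescence (405 nm excitation; 460 and 530 nm emission) after 2 h at room temperature. Before that, cells carrying a Smad-binding-element beta-lactamase reporter in HEK 293T had been stimulated 5 h at 37 C with TGF-beta1 (0.25 ng/mL addition solution) in the presence of test compound.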
Tags give direction and shape of the fitted curve or compound fluorescence and quenching.

Chain of UniProt P06401 (P06401 whole entry, looked up): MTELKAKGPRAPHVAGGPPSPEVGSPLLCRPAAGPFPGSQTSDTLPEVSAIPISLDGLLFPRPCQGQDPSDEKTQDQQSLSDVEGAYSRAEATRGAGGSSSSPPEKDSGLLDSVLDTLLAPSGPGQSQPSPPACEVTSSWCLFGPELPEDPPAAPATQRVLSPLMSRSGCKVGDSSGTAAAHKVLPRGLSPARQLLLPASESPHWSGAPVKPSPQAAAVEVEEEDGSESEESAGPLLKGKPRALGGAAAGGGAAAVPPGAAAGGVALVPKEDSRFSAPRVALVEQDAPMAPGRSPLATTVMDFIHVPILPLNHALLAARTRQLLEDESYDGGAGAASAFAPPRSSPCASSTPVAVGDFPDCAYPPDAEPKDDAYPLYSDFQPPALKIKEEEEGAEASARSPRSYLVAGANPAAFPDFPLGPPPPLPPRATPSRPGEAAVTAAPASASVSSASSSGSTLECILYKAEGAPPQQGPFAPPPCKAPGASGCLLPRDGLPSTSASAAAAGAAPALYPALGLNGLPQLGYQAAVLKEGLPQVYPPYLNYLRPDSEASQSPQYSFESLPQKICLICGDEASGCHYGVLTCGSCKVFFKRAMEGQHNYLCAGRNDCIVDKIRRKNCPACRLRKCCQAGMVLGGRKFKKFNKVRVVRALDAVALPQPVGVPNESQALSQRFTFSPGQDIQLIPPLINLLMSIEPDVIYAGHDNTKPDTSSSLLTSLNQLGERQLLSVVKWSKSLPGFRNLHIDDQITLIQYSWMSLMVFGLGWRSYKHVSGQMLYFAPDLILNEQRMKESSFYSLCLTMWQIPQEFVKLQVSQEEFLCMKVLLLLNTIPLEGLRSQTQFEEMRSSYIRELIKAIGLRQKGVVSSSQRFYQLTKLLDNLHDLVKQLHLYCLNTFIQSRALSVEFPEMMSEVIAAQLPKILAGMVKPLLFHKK
Chain of UniProt P34981 (P34981 whole entry, looked up): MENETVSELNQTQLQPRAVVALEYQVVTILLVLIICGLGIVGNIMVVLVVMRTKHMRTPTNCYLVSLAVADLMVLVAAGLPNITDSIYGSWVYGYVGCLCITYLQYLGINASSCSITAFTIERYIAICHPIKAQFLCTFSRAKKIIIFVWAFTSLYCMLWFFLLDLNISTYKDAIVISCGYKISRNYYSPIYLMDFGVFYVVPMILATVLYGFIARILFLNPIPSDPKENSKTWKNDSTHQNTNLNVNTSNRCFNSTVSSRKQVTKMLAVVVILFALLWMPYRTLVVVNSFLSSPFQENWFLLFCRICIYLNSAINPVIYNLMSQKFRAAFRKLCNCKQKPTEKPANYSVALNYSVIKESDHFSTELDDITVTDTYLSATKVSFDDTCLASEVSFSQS
Chain of UniProt P16473 (P16473 whole entry, looked up): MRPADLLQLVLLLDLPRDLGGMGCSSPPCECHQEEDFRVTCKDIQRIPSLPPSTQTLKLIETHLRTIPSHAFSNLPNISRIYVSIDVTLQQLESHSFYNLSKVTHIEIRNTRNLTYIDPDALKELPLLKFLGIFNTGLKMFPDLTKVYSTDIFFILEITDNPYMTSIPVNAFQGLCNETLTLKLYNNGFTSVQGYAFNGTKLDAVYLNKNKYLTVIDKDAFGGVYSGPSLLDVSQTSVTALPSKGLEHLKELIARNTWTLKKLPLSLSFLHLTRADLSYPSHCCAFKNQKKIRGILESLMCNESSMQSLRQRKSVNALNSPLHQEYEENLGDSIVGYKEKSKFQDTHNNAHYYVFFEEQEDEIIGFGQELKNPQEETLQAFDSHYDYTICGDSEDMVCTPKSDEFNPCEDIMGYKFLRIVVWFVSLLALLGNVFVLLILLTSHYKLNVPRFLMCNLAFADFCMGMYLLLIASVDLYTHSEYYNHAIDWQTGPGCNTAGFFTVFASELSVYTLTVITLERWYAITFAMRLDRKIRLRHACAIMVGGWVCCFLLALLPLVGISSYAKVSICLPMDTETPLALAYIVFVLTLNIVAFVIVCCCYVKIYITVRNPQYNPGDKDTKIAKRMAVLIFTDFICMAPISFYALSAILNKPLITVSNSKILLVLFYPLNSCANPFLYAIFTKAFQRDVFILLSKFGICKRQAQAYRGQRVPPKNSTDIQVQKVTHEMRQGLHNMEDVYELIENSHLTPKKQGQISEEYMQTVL

Structure (SMILES): O=C1C(Cl)=C(Cl)C(=O)c2ccccc21
- Potency [1]: active: 19.4 µM and active: 30.6 µM
- cAMP activity change [2]: inconclusive: 5.15% and inconclusive: 0.502%
- Potency [3]: inconclusive: 34.5 µM [partial curve] and active: 48.6 µM
- Potency [4]: inconclusive: 68.8 µM [cytotoxic, single point] and active: 61.1 µM
- Potency [5]: active: 49.1 µM and active: 49 µM
- Potency [6]: inconclusive: 21.9 µM [fluorescent, partial curve] and inconclusive: 21.9 µM [fluorescent, full curve]
- Potency [7]: active: 21.4 µM and active: 21.3 µM
- Potency [8]: inconclusive: 68.6 µM [cytotoxic, single point]

Structure (SMILES): O=C(O)c1ccc(=O)[nH]c1
- Potency [9]: inactive
- Potency [10]: inactive
- Potency [11]: inconclusive: 33.5 µM [rising, single point]

Structure (SMILES): Fc1ccc(C(OCCN2CCN(CCCc3ccccc3)CC2)c2ccc(F)cc2)cc1
- Potency [1]: active: 26.6 µM
- Potency [12]: inconclusive: 16.8 µM [falling, partial curve]
- Potency [13]: inconclusive: 29.8 µM [falling, single point]
- Potency [3]: inconclusive: 33.5 µM [falling, single point]
- Potency [4]: inconclusive: 33.5 µM [cytotoxic, single point]
- Potency [5]: inconclusive: 23.9 µM [cytotoxic, partial curve]
- Potency [6]: inactive
- Potency [14]: inconclusive: 33.5 µM [activator, single point]
- Potency [15]: active: 23.7 µM

Structure (SMILES): O=S1(=O)OC(c2cc(Br)c(O)c(Br)c2)(c2cc(Br)c(O)c(Br)c2)c2ccccc21
- Potency [1]: inconclusive: 28.1 µM [cytotoxic, full curve]
- Potency [2]: inconclusive: 5.82 µM
- Potency [12]: inconclusive: 3.53 µM [falling, full curve]
- Potency [10]: inconclusive: 49.9 µM [cytotoxic, partial curve]
- Potency [4]: inconclusive: 44.5 µM [cytotoxic, partial curve]

Structure (SMILES): CC(C)C1CCC(Cc2ccc(Cl)cc2)C1(O)Cn1cncn1 (centres undefined)
- Potency [1]: active: 67.9 µM
- Potency [12]: inconclusive: 67.9 µM [falling, single point]
- Potency [16]: inconclusive: 67.9 µM [cytotoxic]
- activation [13]: inconclusive: -24.7%
- Potency [3]: active: 3.4 µM
- Potency [10]: inconclusive: 67.9 µM [cytotoxic]
- Potency [4]: inconclusive: 76.2 µM [cytotoxic, single point]
- Potency [5]: active: 54.4 µM
- Potency [17]: inconclusive: 48.5 µM [cytotoxic, single point]
- Potency [6]: inconclusive: 43.2 µM
- Potency [7]: inconclusive: 29.9 µM [inhibitor, partial curve]
- Potency [18]: inconclusive: 43.2 µM [partial curve]

Structure (SMILES): CN1C[C@H](C(=O)N[C@]2(C)O[C@@]3(O)[C@@H]4CCCN4C(=O)[C@H](Cc4ccccc4)N3C2=O)C=C2c3cccc4[nH]cc(c34)C[C@H]21
- Potency [1]: active: 54.7 µM and inconclusive: 8.03 µM [cytotoxic, partial curve, poor fit]
- cAMP activity change [2]: inconclusive: -0.0164%
- Potency [12]: inconclusive: 86.7 µM [falling, partial curve]
- Potency [3]: active: 48.8 µM
- Potency [10]: inconclusive: 5.69 µM [cytotoxic, single point]
- Potency [4]: inconclusive: 68.9 µM [cytotoxic, single point]
- Potency [8]: inconclusive: 18 µM [cytotoxic, partial curve]

Structure (SMILES): Cc1ccc(N(SC(F)(Cl)Cl)S(=O)(=O)N(C)C)cc1
- Potency [1]: inconclusive: 61.1 µM [cytotoxic, partial curve]
- Potency [12]: active: 61.1 µM
- activation [13]: inconclusive: -18.1%
- Potency [3]: inconclusive: 27.3 µM
- Potency [10]: inconclusive: 54.5 µM [cytotoxic, partial curve]
- Potency [7]: inconclusive: 7.57 µM [inhibitor, full curve]
- Potency [8]: active: 43.3 µM

Structure (SMILES): CCOP(=O)(OCC)Oc1nc(Cl)c(Cl)cc1Cl
- Potency [1]: inconclusive: 6.08 µM [cytotoxic, full curve]
- Potency [2]: inconclusive: 68.2 µM [falling, partial curve, poor fit]
- Potency [12]: inconclusive: 68.2 µM
- activation [13]: inconclusive: -12.8%
- Potency [3]: active: 5.42 µM
- Potency [4]: inconclusive: 0.608 µM
- Potency [8]: inconclusive: 68.2 µM [cytotoxic, single point]
- Potency [11]: inconclusive: 68.2 µM [cytotoxic, single point]
